According to PubChem BioAssay AID1645882 (National Center for Advancing Translational Sciences (NCATS), 2021):
About 120 (0.75%) of roughly 16,000 compounds were called active. Roughly 4% stayed inconclusive and do not appear here. The call rests on the fitted dose curve; in most records, active means well fitted inhibition curve with a large enough effect; inconclusive means small, poorly fitted or top-dose-only effect; inactive means no such curve, though single readings can be large or run the other way. Some of the results follow.

These molecules were tested against Rap guanine nucleotide exchange factor 3 (Homo sapiens) (UniProt O95398) (assay: Validation qHTS for antagonist of cAMP-regulated guanine nucleotide exchange factor 3 (EPAC1)). Settings: EPAC1 Rap1B-BODIPY-GDP exchange, fluorescence; series mostly up to 150 µM; activity change, negative = inhibition: at the top concentration.
Method in brief: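 Nucleotide exchange followed as fluorescence loss when BODIPY-GDP leaves Rap1B (480 nm excitation, 540 nm emission), read at 5 min intervals over 30 min. Reaction: 100 nM EPAC1, 250 nM RAP1B-BODIPY-GDP, 50 uM GDP; ATA and DMSO define normalization.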
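Further: plate controls were DMSO for no effect and ATA control for full effect; nearly all actives have a fitted effect of over 75% in size.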

Sequence of UniProt O95398 (O95398 whole entry, looked up): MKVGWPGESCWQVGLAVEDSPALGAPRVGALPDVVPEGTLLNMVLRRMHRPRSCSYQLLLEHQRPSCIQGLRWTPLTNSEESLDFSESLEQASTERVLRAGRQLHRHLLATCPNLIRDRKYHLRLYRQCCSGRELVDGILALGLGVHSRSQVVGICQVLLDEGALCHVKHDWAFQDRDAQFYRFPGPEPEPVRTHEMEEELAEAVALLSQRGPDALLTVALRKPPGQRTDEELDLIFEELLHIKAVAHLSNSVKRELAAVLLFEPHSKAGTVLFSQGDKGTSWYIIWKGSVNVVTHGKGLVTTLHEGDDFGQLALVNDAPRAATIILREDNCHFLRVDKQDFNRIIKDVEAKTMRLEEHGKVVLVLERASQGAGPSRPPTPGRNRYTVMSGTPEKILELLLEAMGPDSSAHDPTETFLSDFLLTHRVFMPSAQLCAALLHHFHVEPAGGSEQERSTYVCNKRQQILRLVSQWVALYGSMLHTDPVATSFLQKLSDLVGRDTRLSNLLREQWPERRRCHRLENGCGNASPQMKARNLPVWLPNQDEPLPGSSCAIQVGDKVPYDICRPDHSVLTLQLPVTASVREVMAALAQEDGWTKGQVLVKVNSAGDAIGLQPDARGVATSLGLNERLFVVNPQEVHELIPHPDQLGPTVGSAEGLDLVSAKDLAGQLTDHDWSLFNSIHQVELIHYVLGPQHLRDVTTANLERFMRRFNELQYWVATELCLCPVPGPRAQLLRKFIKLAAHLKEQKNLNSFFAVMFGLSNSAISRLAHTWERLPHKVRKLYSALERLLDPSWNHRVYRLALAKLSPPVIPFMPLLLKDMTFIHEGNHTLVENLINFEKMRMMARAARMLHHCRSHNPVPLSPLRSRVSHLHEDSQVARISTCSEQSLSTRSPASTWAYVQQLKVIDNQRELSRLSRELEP

Activity change, negative = inhibition, inactive:
CC(C)C[C@@H](CO)N1CCNCCC1=O 3.35%
Nc1ccn([C@H]2C[C@H](O)[C@@H](CO)O2)c(=O)n1 13.8%
Cc1oc(-c2ccccc2NC(=O)C2CCCO2)nc1CNC(=O)c1cc(F)c(F)cc1F (configuration not stated) 11.8%
O=C(O)CN(CCN(CC(=O)O)CC(=O)O)CC(=O)O
CC1(C)S[C@@H]2[C@H](NC(=O)COc3ccccc3)C(=O)N2[C@@H]1C(=O)OCc1cccc2cccnc12 4.91%
CCCCCCCCN1[C@@H](CC(C)=O)c2ccc(/C=C/C(C)=O)cc2S1(=O)=O 21.3%
CCCNC(=O)NS(=O)(=O)c1ccc(Cl)cc1
CCN(CC)C(C)CN1c2ccccc2Sc2ccccc21 (configuration not stated)
COCCNc1ccnc(-c2ccccc2C(F)(F)F)n1 -10.5%
CC(=O)O[C@]1(C(C)=O)CC[C@H]2[C@@H]3C=C(Cl)C4=CC(=O)CC[C@]4(C)[C@H]3CC[C@@]21C 9.93%
CN1CCN(CCc2ccc(Cl)c(Cl)c2)CC1 5.29%
COc1cccc(CCNc2ncnc3sc(C(=O)N4CCN(C)CC4)c(C)c23)c1 12.5%
CCC1C(=O)NCCN1Cc1ccc2c(c1)CN(Cc1ccc3c(c1)OCCO3)CCO2 (configuration not stated) 18%
COc1cc2c(cc1OC)OC(C)(C)C=C2 -9.62%
CCC1C(=O)NCCN1Cc1ccc2c(c1)CN(Cc1ccc(F)c(OC)c1)CCO2 (configuration not stated) 9.55%
COCCn1c(=O)c(-c2ccc(OC)cc2)nc2cnc(N3CCN(C)CC3)nc21 3.47%
CO/N=C(/C(=O)NC1C(=O)N2C(C(=O)O)=C(COC(N)=O)CSC12)c1ccco1 (configuration not stated) 9.11%
CCCS(=O)(=O)NCc1c(C)ncc2c1CCN(C(=O)c1ccc(Cl)cc1)C2 3.01%
CC(C)c1ncc([N+](=O)[O-])n1C 18.5%
O=c1c(-c2cccs2)nc2cnc(Oc3ccccc3)nc2n1Cc1cccs1 10.5%
CCCCNC(=O)[C@@H]1CC=C[C@@H]2CCN(C3CC3)C(=O)[C@@H]21 -1.58%
COC(=O)c1ccccc1-c1cc(C)cc2c1OC(CNC(=O)C1CCCO1)C2 (configuration not stated) 0.196%
Cc1cnc(CNc2ccnc(-c3ccccc3C(F)(F)F)n2)cn1 3.63%
COC(=O)c1ccccc1-c1cc(C)cc2c1OC(CNC(=O)c1occc1C)C2 (configuration not stated) -21%
CN1CCN(c2ncc3nc(-c4cc(F)cc(F)c4)c(=O)n(Cc4cccs4)c3n2)CC1 10%
Cc1cnc(CNc2ncncc2-c2cccc(NS(C)(=O)=O)c2)cn1 13.3%
COc1cc(=O)n2c(c1C(=O)N(C)Cc1nonc1C)CCN(Cc1cc(C)ccc1C)CC2 12.3%
Cn1c(=O)c2c(ncn2CC2OCCO2)n(C)c1=O 6.77%
CS(=O)(=O)c1ccc(C(O)C(CO)NC(=O)C(Cl)Cl)cc1 (configuration not stated) 17.1%
COc1ccccc1CCNCc1cc2cccc(C)c2nc1-c1cccs1 4.04%
Cc1cnc(CNc2cc(-c3cccc(C#N)c3)ncn2)cn1 2.75%
COc1ccccc1CN1CC2(CCN(C(=O)c3cccc(F)c3)CC2)C1 13.4%
FC(F)(F)c1ccccc1-c1nc(N2CCOCC2)c2ccccc2n1 -18.9%
CCCCCCCC(=O)OCC(COC(=O)CCCCCCC)OC(=O)CCCCCCC 31.1%
Oc1cc2c(cc1O)C(c1ccccc1)CNCC2 (configuration not stated)
COc1ccc2[nH]cc(CCNc3nc(-c4ccccc4CN(C)C)nc4ccccc34)c2c1 30.8%
O=C(O)CC/C=C\CC[C@@H]1[C@@H](N2CCCCC2)[C@@H](O)C[C@@H]1OCc1ccc(-c2ccccc2)cc1 22.9%
CN(C)c1ncc2nc(-c3cc(F)cc(F)c3)c(=O)n(Cc3cccs3)c2n1 78.6%
Cc1noc(C)c1-c1cc(NC2CCNCC2)ncn1 11.8%
NC(C(=O)O)C(CC(=O)O)c1ccc(Cl)cc1 (configuration not stated) 8.7%
COc1ccccc1-c1cncnc1-n1ccnc1 15.2%
C[C@@]1(C2CCCC2)Cc2cc(OCC(=O)O)c(Cl)c(Cl)c2C1=O
CCNc1ncc2nc(-c3cn(C)c4ccccc34)c(=O)n(CCC#N)c2n1 1.88%
O=C(Nc1ccc(Cl)c(C(F)(F)F)c1)[C@@H]1CC=C[C@@H]2CCN(Cc3ccccc3)C(=O)[C@@H]21 -6.44%
CCC12C(=Nc3c(Cl)cccc31)C[C@@H]1CCN3C(=O)CCC[C@H]2[C@H]13 (some centres not stated) 4.64%
O=C(CNC(=O)c1cccnc1)c1ccc(F)cc1 19.5%
COc1cc(O)cc(O)c1 15.8%
N[C@H](C(=O)O)C(O)C(O)C(O)CO (some centres not stated) -8.35%
FC(F)(F)c1ccccc1-c1nc(NCCN2CCOCC2)c2ccccc2n1 -0.453%
COCC(=O)N1CCC2(CCCN(C(=O)Nc3ccc(OC)cc3)C2)CC1 20.1%
CC(=O)N(CC(O)CO)c1c(I)c(C(=O)NCC(O)CO)c(I)c(C(=O)NCC(O)CO)c1I (configuration not stated) 23.3%
COc1cc(=O)n2c(c1C(=O)N(C)Cc1ccsc1)CCN(Cc1c(C)nn(C)c1Cl)CC2 9.4%
COc1ccccc1CN1CCC2(CC1)CCN(C(=O)c1c(C)noc1C)CC2 16.6%
O=P(O)(O)OC[C@H]1O[C@](O)(COP(=O)(O)O)[C@@H](O)[C@@H]1O 5.96%
O=C(NCCCN1CCOCC1)c1cnn(-c2ncc3c(n2)-c2ccccc2CC3)c1C1CC1 21.3%
CC(C)(C)[C@H]1CCC(=O)N([C@H](CC#N)Cc2ccccc2)CC1 -2.77%
COc1ccccc1CN1CCC2(CCC(CNC(=O)c3ccccc3N(C)C)O2)CC1 (configuration not stated) 17.5%
O=C1CCN(Cc2ccccc2)CCN1[C@H](COc1ccccc1)c1ccccc1 -2.52%
COc1cccc(Cn2c(=O)c(-c3cccs3)nc3cnc(N(C)C)nc32)c1 21%
Cc1ccc(C(=O)N(Cc2cc3ccc(F)cc3nc2N2CCC(O)CC2)CC2CCCO2)cc1 (configuration not stated) 17.9%
COc1ncc2nc(CCc3ccccc3)c(=O)n(Cc3ccc(F)cc3)c2n1 -6.33%
COc1ccc(NC(=O)N2CC3(CCN(C(=O)c4cccc(F)c4)CC3)C2)cc1 12.9%
CN1CCN(c2ncncc2-c2cccnc2)CC1 -7.01%
COc1ccc(CNc2ncncc2-c2cccc(C#N)c2)c(OC)c1 -14.2%
COc1cc(-c2cnc3ccccc3c2)cc2c1OCCN(C(=O)Cn1nccc1C)C2 22.3%
COc1cc([C@@H]2c3cc4c(cc3C(O[C@@H]3O[C@@H]5CO[C@@H](C)O[C@H]5[C@H](O)[C@H]3O)C3COC(=O)[C@@H]32)OCO4)cc(OC)c1OP(=O)(O)O (some centres not stated)
CN1CCN(c2ncc3nc(-c4cn(C)c5ccccc45)c(=O)n(CCC#N)c3n2)CC1 50%
CN(C)CCOc1ccccc1Cc1ccccc1 (tested in a mixture with another compound) 16.1%
O=C(C[n+]1ccncc1)c1cccc([N+](=O)[O-])c1 27.9%
CN1CCC2(CC1)CCN(S(=O)(=O)c1ccccc1)CC2 16.4%
CCCC[C@H]1COCCS(=O)(=O)N1Cc1cccc(F)c1 -7.02%
CC(=O)N(CC(O)CO)c1c(I)c(C(=O)NCCO)c(I)c(C(=O)NCC(O)CO)c1I (configuration not stated) 25.5%
COc1ccc(-n2c(=O)c(-c3ccc(F)cc3)nc3cnc(N4CCOCC4)nc32)cc1 8.94%
CN1CCN(c2ccnc(-c3ccccc3C(F)(F)F)n2)CC1 19.2%
CN(C)c1ncc2nc(-c3ccc(F)cc3)c(=O)n(CCC#N)c2n1 13.9%
CN1CCN(CC(=O)N2c3ccccc3C(=O)Nc3cccnc32)CC1
CC(C)NC(=O)[C@@H]1C[C@@H](Sc2nc3ccccc3[nH]2)CN1C1Cc2ccccc2C1 -12.8%
N#CCCn1c(=O)c(-c2cc(F)cc(F)c2)nc2cnc(Nc3ccccc3)nc21 18.9%
Cn1cc[nH]c1=S
Cc1nc2ccc(C(=O)NCC3CCC4(CCN(Cc5cccnc5)CC4)O3)cc2nc1C (configuration not stated) 15.3%
Cc1nc2cnc(N(C)C)nc2n(Cc2ccc(F)cc2)c1=O 10.7%
O=C1[C@H](Cc2ccccc2)NCCCC[C@@H](c2ccc(Cl)cc2)N1Cc1ccc(Cl)cc1 -7.93%
NC(Cn1ccc(=O)c(O)c1)C(=O)O (configuration not stated) 8.31%
CNCCc1cnc(CCC(c2ccccc2)c2ccccc2)[nH]1 3.33% [at 75.8 µM]
CC[C@](N)(CCC(=O)O)C(=O)O
CC(=O)OC1CC(O)C(C)(C)C2CC(OC(C)=O)[C@]3(C)C(CC[C@@]4(C)C(c5ccoc5)OC(=O)C5OC534)[C@]12C (some centres not stated) 17.5%
CN1CCN(c2ncc3nc(-c4cc(F)cc(F)c4)c(=O)n(C)c3n2)CC1 22.6%
CS(=O)(=O)Nc1cccc(-c2nccc(NCc3ccccc3)n2)c1 7.97%
COC1=C(OC)C(=O)C(CC=C(C)CCC=C(C)CCC=C(C)CCC=C(C)CCC=C(C)CCC=C(C)CCC=C(C)CCC=C(C)CCC=C(C)CCC=C(C)C)=C(C)C1=O 29.8%
CC(C)NCC(O)COc1ccc(CC(N)=O)cc1 (configuration not stated)
COCc1ccc(C(=O)N2CCOc3c(cc(-c4cc(C)c5cccc(OC)c5n4)cc3OC)C2)o1 3.58%
COc1cccc(Cn2c(=O)c(-c3cccs3)nc3cnc(N4CCOCC4)nc32)c1 -1.5%
CC(C)C[C@H](NC(=O)[C@@H](COC(C)(C)C)NC(=O)[C@H](Cc1ccc(O)cc1)NC(=O)[C@H](CO)NC(=O)[C@H](Cc1c[nH]c2ccccc12)NC(=O)[C@H](Cc1cnc[nH]1)NC(=O)[C@@H]1CCC(=O)N1)C(=O)N[C@@H](CCCN=C(N)N)C(=O)N1CCC[C@H]1C(=O)NNC(N)=O
COC(=O)[C@@H]1CCCN1C(=O)c1c(OC)cc(=O)n2c1CCN(Cc1ccc3c(c1)OCCO3)CC2 1.1%
Cc1c(C(=O)NC(C)(C)CO)sc2ncnc(NCCN(C)C)c12 9.74%
COc1ccc(OC)c(-c2cc(Cl)c3c(c2)CC(CNC(=O)c2cccnc2SC)O3)c1 (configuration not stated) -7.16%
Cc1cccc(C(=O)N[C@H]2CC[C@@H](n3cc(C(=O)N4CCCC4)nn3)CC2)c1 1.56%
